From patent publication US20090324515A1, “ANTIMICROBIAL FLAVOURING COMPOSITION” (priority 2006, published 2009)

Test system: two or more strains selected from Fusobacterium nucleatum, Fusobacterium sp., Porphyromonas gingivalis, Prevotella intermedia, Klebsiella pneumoniae …
Assay: MIC test against oral bacterial strains (general protocol)
Conditions: desired = MIC of 1000 or less (parts per million) against two or more of the listed strains

Compound	MIC characteristics required by the present invention
C=C(C)[C@@H]1CCC2=CC(=O)C[C@@H](C)[C@]2(C)C1 [nootkatone, (+)-(4r)-4,4-a,5,6,7,8-hexahydro-6-isopropenyl-4,4a-dimethyl-2(3h)-naphthalenone]	desired MIC characteristics
CCCCC(C)C(=O)O (stereo not shown) [2-Methylhexanoic acid, 2-methylhexanoic acid]	desired MIC characteristics
CCCCCCCCCC(C)C=O (stereo not shown) [methyl undecanal]	desired MIC characteristics
CC1=CCC(C/C=C(\C)CO)C1(C)C (stereo not shown) [santalinol, (e)-2-methyl-4-(2,2,3-trimethyl-3-cyclopenten-1-yl)-2-buten-1-ol]	desired MIC characteristics
CC/C(=C\C[C@H]1CC=C(C)C1(C)C)CO [levosandol]	desired MIC characteristics
Cc1ccc(O)cc1C [3,4-dimethylphenol]	desired MIC characteristics
O=C1CCCCCCCCCCCCCC1 [Cyclopenta-decanone, cyclopentadecanone]	desired MIC characteristics
CC1CCC(C(C)C)C(OCC(O)CO)C1 (stereo not shown)	desired MIC characteristics
COc1ccccc1C=CC=O [o-methoxycinnamic aldehyde]	desired MIC characteristics
O=CCCc1ccccc1 [hydrocinnamic aldehyde]	desired MIC characteristics
CCC(O)/C(C)=C/C1(C)CC2C=CC1C2 (stereo not shown) [methyl sandeflor]	desired MIC characteristics
O=C1CCCCCCCCCCCCCCO1 [cyclopentadecanolide]	desired MIC characteristics
CC1=CCC(CCC(C)C(C)O)C1(C)C (single isomer, unassigned; (+)) [sandalore, (+)-3-methyl-5-(2,2,3-trimethyl-3-cyclopenten-1-yl)-2-pentanol]	desired MIC characteristics
O=C1CCCCCCCCCCC(=O)OCCO1 [ethylenedodecanedioate]	desired MIC characteristics
CCCCCCCC/C=C/C=O [trans-2-undecenal]	desired MIC characteristics
CCCCCCCCC=CCC=O [3-dodecenal]	desired MIC characteristics
CC(C=O)Cc1ccc(C(C)(C)C)cc1 (stereo not shown) [lilial 1 g, 3-(4-tert-butylphenyl)-2-methylpropanal]	desired MIC characteristics
C/C=C\c1ccc(O)c(OC)c1 [isoeugenol extra]	desired MIC characteristics
CCCCCCCCCCCC=O [dodecanal]	desired MIC characteristics
COC(=O)c1c(C)cc(O)c(C)c1O [Methylatrarate, methyl-2,4-dihydroxy-3,6-dimethyl-benzoate]	desired MIC characteristics

Compound	MIC characteristics required by the present invention
CC(=O)O[C@]1(C)CC[C@@]23C[C@@H]1C(C)(C)[C@@H]2CC[C@H]3C [cedryl acetate]	desired MIC characteristics
CC1=CCC(CCC(C)CO)C1(C)C (stereo not shown) [Brahmanol, 2-methyl-4-(2,2,3-trimethyl-3-cyclopenten-1-yl)-1-butanol]	desired MIC characteristics
decen-1-ol	desired MIC characteristics
CC(=O)C1=C(C)[C@@H]2C[C@@]3(C1)[C@H](C)CC[C@H]3C2(C)C [Acetyl cedrene, acetyl cedrene]	desired MIC characteristics
cyclohexadecen-1-one	desired MIC characteristics
undecen-1-ol	desired MIC characteristics
CCCCCCCCCCC=O [undecanal]	desired MIC characteristics
CC(C)=CCC/C(C)=C/CCC(C)CCO (stereo not shown) [dihydrofarnesol]	desired MIC characteristics
methyl decanal	desired MIC characteristics
C=C(C)C1CC=C(CO)CC1 (stereo not shown) [perilla alcohol, 1,8-p-menthadien-7-ol]	desired MIC characteristics
isocamphylcyclohexanol	desired MIC characteristics
O=C/C=C/c1ccccc1 [Cinnamic aldehyde, cinnamic aldehyde]	desired MIC characteristics
CCC(=CCC1CC=C(C)C1(C)C)CO (stereo not shown) [bacdanol, 2-ethyl-4-(2,2,3-trimethyl-3-cyclopenten-1-yl)-2-buten-1-ol]	desired MIC characteristics
CC1C(C)(C)C2=C(C(=O)CCC2)C1(C)C (stereo not shown) [cashmerane]	desired MIC characteristics
O=CCc1ccccc1 [phenylacetaldehyde]	desired MIC characteristics
CCCCCCCCCO [nonanol]	desired MIC characteristics
CC(=O)c1cc2c(cc1C)C(C)(C)C(C)C2(C)C (stereo not shown) [phantolid, 1-(1,1,2,3,3,6-hexamethyl-5-indanyl)-1-ethanone]	desired MIC characteristics
C[C@@H]1CC[C@H]2C(C)(C)[C@H]3C[C@@]12CC[C@@]3(C)O [cedrol]	desired MIC characteristics
C/C=C/c1ccc(OC)cc1 [anethole, (e)-1-methoxy-4-(1-propenyl)benzene]	desired MIC characteristics
C=CC(C)(O)CCC=C(C)CCC=C(C)C (stereo not shown) [nerolidol, 3,7,11-trimethyl-1,6,10-dodecatrien-3-ol]	desired MIC characteristics
